In all, about 110,000 compounds were measured (“z-score”: median about -0.1, highest 2% from about 2 on). This is one part of the list.
biological target: Metabotropic glutamate receptor 8 (Rattus norvegicus) (UniProt P70579); experiment: rat mGluR8 modulators via GIRK flux, primary screen, cell-based, thallium flux, HTS (AID 488969); conditions: HEK293 rat mGluR8, GIRK (G protein-gated inwardly rectifying potassium channel) thallium flux, FluoZin2; at 10 µM; stronger effect = higher value
UniProt P70579, sequence (P70579 whole entry, looked up): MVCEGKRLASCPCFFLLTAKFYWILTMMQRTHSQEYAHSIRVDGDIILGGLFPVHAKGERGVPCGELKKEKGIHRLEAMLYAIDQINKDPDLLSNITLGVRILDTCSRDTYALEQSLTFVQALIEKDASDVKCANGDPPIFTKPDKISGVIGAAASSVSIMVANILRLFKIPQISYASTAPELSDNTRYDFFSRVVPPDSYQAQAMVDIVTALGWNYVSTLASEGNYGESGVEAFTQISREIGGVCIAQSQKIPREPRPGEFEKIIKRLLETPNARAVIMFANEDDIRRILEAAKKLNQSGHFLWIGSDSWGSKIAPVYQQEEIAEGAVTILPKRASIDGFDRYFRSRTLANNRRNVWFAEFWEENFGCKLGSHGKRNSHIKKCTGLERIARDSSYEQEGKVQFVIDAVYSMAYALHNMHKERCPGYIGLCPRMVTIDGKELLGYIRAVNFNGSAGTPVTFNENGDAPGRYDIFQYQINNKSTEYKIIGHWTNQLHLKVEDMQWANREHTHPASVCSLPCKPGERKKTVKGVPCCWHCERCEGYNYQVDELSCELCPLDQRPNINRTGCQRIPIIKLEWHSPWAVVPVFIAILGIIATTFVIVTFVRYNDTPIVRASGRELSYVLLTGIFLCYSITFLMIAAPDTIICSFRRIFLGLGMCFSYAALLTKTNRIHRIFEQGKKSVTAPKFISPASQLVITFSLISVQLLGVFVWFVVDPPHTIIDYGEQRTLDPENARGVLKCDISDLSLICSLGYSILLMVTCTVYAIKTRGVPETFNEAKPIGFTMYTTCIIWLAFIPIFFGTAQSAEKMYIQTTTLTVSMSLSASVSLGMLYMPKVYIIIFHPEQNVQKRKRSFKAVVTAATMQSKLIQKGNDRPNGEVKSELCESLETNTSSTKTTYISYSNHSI

Row | Structure (SMILES) | z-score
1 | CCN(CC)c1ccc(C=C2C(=O)N(C)C(=S)N(C)C2=O)o1 | -0.225
2 | CCN1C(=O)NC(=O)/C(=C/c2cc(C)n(-c3sc(C)c(C)c3C#N)c2C)C1=O | -0.623
3 | CCCCNC(=O)Nc1ccc(C(O)(C(=O)OC)C(F)(F)F)cc1 (stereo not given) | -2.26
4 | CCOC(=O)C1CCN(C=C2C(=O)N(C)C(=S)N(C)C2=O)CC1 | -0.441
5 | O=C(CN1CCCCC1)c1ccccc1Cl | 0.466
6 | CCOC(=O)c1c(N)n(Cc2ccccc2)c2nc3ccccc3nc12 | -0.161
7 | CCC(C)N1C(=O)/C(=C\c2ccc(N3CCCCCC3)cc2)C(=O)NC1=S (stereo not given) | -0.384
8 | CCOC(=O)C(O)(c1ccc(NC(=O)NC2CCCCC2)cc1)C(F)(F)F (stereo not given) | 0.0169
9 | CCOC(=O)C1=C(N)OC2=C(C(=O)CC(C)(C)C2)C12C(=O)Nc1ccccc12 (stereo not given) | 0.721
10 | Cc1c(C=O)c2ccccc2n1Cc1ccc([N+](=O)[O-])cc1 | -0.755
11 | Cc1ccc(CN2C(=O)CN=C(c3ccccc3)c3ccccc32)cc1 | 0.176
12 | CCc1nnc(NC(=O)CCc2nc(C3=CCN(C)CC3)no2)s1 | 0.528
13 | Cc1ccc(C)c(NC2=NCCCS2)c1 | 0.861
14 | O=P(C(c1c[nH]c2ccccc12)N1CCOCC1)(N1CCOCC1)N1CCOCC1 (stereo not given) | -0.0965
15 | CN1C2CCC1CC(OC(=O)c1cc(Cl)cc(Cl)c1)C2 (stereo not given) | 1.33
16 | Cc1ccc2c(c1)N(CCC(=O)N1CCC3(CC1)OCCO3)C(=O)CO2 | 0.152
17 | CCC(=NCCCN1CCOCC1)c1c(O)n(Cc2ccccc2)c(=O)[nH]c1=O | -0.0284
18 | Cc1ccc(O)c(C(=O)c2cc(C(=O)NCc3ccccc3)c(=O)n(Cc3ccccc3)c2)c1 | -0.479
19 | COC(=O)[C@@H]1[C@@H](C(=O)OC)C2(c3ccccc3-c3ccccc32)N(c2ccc(Cl)cc2)N1C#N | 0.16
20 | Cc1nnc2n1-c1ccc(Br)cc1C(c1ccccc1Cl)=NC2 | 0.0708
21 | CC(=NCc1ccc2c(c1)OCO2)c1c(O)n(C)c(=O)n(C)c1=O | 0.356
22 | COc1ccccc1OCCCn1cc(C(=O)c2ccco2)c2ccccc21 | -1.11
23 | CN1CCN(c2c(N)c(=O)oc3ccccc23)CC1 | 0.0987
24 | O=C1NC(=S)NC(=O)C12C(c1ccc(F)cc1)NC(=S)NC2c1ccc(F)cc1 (stereo not given) | 0.361
25 | CCN1CCN(S(=O)(=O)c2ccc(Cl)nc2)CC1 | -0.242
26 | COc1ccccc1-n1c(-c2ccoc2)nc2ccccc2c1=O | -0.202
27 | CC1(C)CN2C(c3ccc(Cl)cc3)N2C1 (stereo not given) | 0.161
28 | CSc1nnc(C2CCNCC2)n1C | -1.17
29 | CCN1C(=O)/C(=C/c2ccc3c(c2)CCN3CCCCl)C(=O)NC1=S | -0.22
30 | CN1C(=O)N(C)C(=O)C2(Cc3cc([N+](=O)[O-])ccc3N(C)C2c2ccccc2)C1=O (stereo not given) | 0.143

From PubChem BioAssay AID488969 (Vanderbilt High Throughput Screening Facility, 2010)
